# Experimental data from PubChem BioAssay AID1030 (National Center for Advancing Translational Sciences (NCATS), 2008).
# Several values for one entry are separate records, joined by “and”; a condition that tells them apart may be missing. Equal entries are not always repeated. The whole screen tested about 220,000 compounds, of which about 16,000 (7.3%) were called active. The shares of active, inactive and inconclusive entries below differ from those in the screen. Calls follow the shape of the dose curve; as a rule, active = well fitted inhibition curve with a large enough effect (not every such curve was filed as active); inconclusive = small, poorly fitted or top-dose-only effect, or another doubt; inactive = no such curve, though single readings can be large or run the other way. Potencies of inconclusive entries are doubtful fits and often do not repeat.
# Target: Aldehyde dehydrogenase 1A1 (Homo sapiens) (UniProt P00352)
# Assay: qHTS Assay for Inhibitors of Aldehyde Dehydrogenase 1 (ALDH1A1)
# Details: Purified ALDH1A1, NADH fluorescence, propionaldehyde substrate; series mostly up to 75.3 µM
# Potency is read from the fitted curve at half-maximal effect; tags tell the direction and shape of the fitted curve.
# UniProt P00352, sequence (P00352 whole entry, looked up): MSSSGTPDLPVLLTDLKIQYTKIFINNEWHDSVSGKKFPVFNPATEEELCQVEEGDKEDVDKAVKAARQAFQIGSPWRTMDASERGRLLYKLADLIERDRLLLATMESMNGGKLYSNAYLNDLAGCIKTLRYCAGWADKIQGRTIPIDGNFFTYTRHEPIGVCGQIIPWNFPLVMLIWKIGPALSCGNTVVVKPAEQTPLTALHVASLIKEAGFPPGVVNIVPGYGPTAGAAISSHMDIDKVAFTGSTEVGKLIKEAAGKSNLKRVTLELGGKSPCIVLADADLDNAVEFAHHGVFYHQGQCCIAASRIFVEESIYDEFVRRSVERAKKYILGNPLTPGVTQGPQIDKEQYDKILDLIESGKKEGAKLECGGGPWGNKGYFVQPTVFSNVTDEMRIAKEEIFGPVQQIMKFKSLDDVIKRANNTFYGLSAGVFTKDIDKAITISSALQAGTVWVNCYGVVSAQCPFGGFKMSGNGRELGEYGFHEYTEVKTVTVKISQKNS
row,SMILES,Potency
1,CCOc1ccccc1NC(=O)NC(C)c1ccncc1 (centres undefined),inactive
2,O=C(O)C1CCCCC1C(=O)Nc1ccccc1F (centres undefined),active: 20 µM
3,COc1ccc(-n2cc(-c3ccccc3)c3c(N4CCOCC4)ncnc32)cc1,"inconclusive: 35.5 µM [inhibitor, single point]"
4,Cc1ccc(/C=C/C(=O)OCC(=O)Nc2ccccc2Sc2ccccc2)cc1,"inconclusive: 29.9 µM [inhibitor, partial curve, poor fit]"
5,Cc1ccc(C)c(C(C)NC(=O)CC#N)c1 (centres undefined),inactive
6,Cc1cc(C(=O)CN2C(=O)c3cccc(N)c3C2=O)c(C)n1Cc1cccs1,"inconclusive: 39.8 µM [inhibitor, single point]"
7,O=C(CCl)Nc1cccc(Oc2ccccc2)c1,active: 0.282 µM
8,COc1cc(C(=O)NCc2nnc(SCC(=O)N3CCOCC3)o2)cc(OC)c1OC,inactive
9,COc1cc(OC)cc(-c2cc3nc(C)c(CCC(=O)O)c(=O)n3[nH]2)c1,"inconclusive: 39.8 µM [inhibitor, single point]"
10,Cc1cc(-c2csc(N)n2)c(C)n1C,"inconclusive: 17.8 µM [inhibitor, partial curve, poor fit]"
11,COC(=O)c1[nH]c(C)c(/C(O)=C2\C(=O)C(=O)N(CCN3CCOCC3)C2c2cccs2)c1C (centres undefined),"inconclusive: 44.7 µM [inhibitor, single point]"
12,CCOc1cc(/C=C2\C(=O)N(c3nc(-c4ccc(Br)cc4)cs3)N=C2c2ccccc2)ccc1O,"inconclusive: 17.8 µM [inhibitor, partial curve]"
13,Cc1cccc(N2CCN(CC(O)COCc3cccs3)CC2)c1C (centres undefined),inactive
14,CCOc1ccc(NS(=O)(=O)c2cnc(Cl)c(Cl)c2)cc1,"inconclusive: 35.5 µM [inhibitor, single point]"
15,CCOC(=O)c1cc(-c2cccc(C(F)(F)F)c2)nc2nc(SC)[nH]c(=O)c12,"inconclusive: 39.8 µM [inhibitor, partial curve]"
16,COc1ccc(C(=O)CSc2nnc(-c3ccc(S(=O)(=O)N4CCOCC4)cc3)o2)cc1,active: 0.501 µM
17,O=C1CCC(=O)N1c1nc2nc(-c3ccccc3)cc(-c3ccccc3)n2n1,"inconclusive: 31.6 µM [inhibitor, partial curve]"
18,COc1ccc(NC(=O)N2CC(C)OC(C)C2)cc1OC (centres undefined),inactive
19,COc1ccc(C2C(C(=O)NCc3ccco3)CCC(=O)N2c2ccc(OC)cc2)cc1 (centres undefined),active: 11.2 µM
20,COc1ccc(CN(Cc2cc3cc(C)ccc3[nH]c2=O)C(=O)N(C)C)cc1,"inconclusive: 35.5 µM [inhibitor, single point]"
21,COc1ccc(NC(=O)CN2C(=O)C(C)SC(C)C2=O)c(OC)c1 (centres undefined),"inconclusive: 39.8 µM [inhibitor, single point]"
22,CCc1cccc(C)c1NC(=O)C(c1ccccc1)N1CCC1=O (centres undefined),"inconclusive: 39.8 µM [inhibitor, single point]"
23,FC(F)(F)c1ccccc1-c1cncnc1NCCc1cnc[nH]1,inactive

row,SMILES,Potency
1,Cc1c(-n2cc(C(=O)O)c(=O)c3cc(F)c(N4CCCC(O)C4)c(F)c32)c(=O)n(-c2ccccc2)n1C (centres undefined),"inconclusive: 25.1 µM [inhibitor, single point]"
2,Cc1nc(NC(=O)c2cccnc2)ccc1Br,inactive
3,COc1cc2c(cc1OC)CN(C(=S)Nc1ccc(OC(F)F)cc1)CC2,"inconclusive: 39.8 µM [inhibitor, single point]"
4,O=C1NN=C(c2ccc(Cl)cc2)CC1c1c[nH]c2ccccc12 (centres undefined),"inconclusive: 35.5 µM [inhibitor, single point]"
5,COc1ccc(C(=O)COC(=O)CN2C(=O)C3C4C=CC(C5CC45)C3C2=O)cc1 (centres undefined),active: 12.6 µM
6,CC(C)CC1CC(=O)OC1(C)C(=O)CSc1nc2ccccc2s1 (centres undefined),active: 8.91 µM
7,CCn1c(CSc2nc3ccccc3s2)nnc1SCC(=O)c1ccc2c(c1)OCCO2,"inconclusive: 25.1 µM [inhibitor, single point]"
8,Cc1cc(C(F)(F)F)c2c(C)nn(CCc3nn[nH]n3)c2n1,"inconclusive: 28.2 µM [inhibitor, partial curve]"
9,COc1ccccc1[C@@H]1C(c2ccc(F)cc2)=NN(c2ccccc2)[C@H]1C(=O)N1CCOC1=O,"inconclusive: 12.6 µM [inhibitor, partial curve] and inconclusive: 39.8 µM [inhibitor, single point]"
10,Nc1ccc(OCCCc2c(N)nc(N)nc2N)cc1,"inconclusive: 39.8 µM [inhibitor, single point]"
11,Cc1nc(NS(=O)(=O)c2ccc(Br)cc2)c2c3c(sc2n1)CCC3,active: 12.6 µM
12,CC(C)(C)C1CCc2c(C(=O)NNC(=O)CCCC(=O)O)csc2C1 (centres undefined),inactive
13,C=CCn1c(SCc2cc(=O)n3cc(C)ccc3n2)nnc1-c1cccc(C)c1,"inconclusive: 17.8 µM [inhibitor, partial curve]"
14,CCCCCCNC(=O)c1ccc(Br)o1,inactive
15,CC(NC(=O)/C=C/c1ccco1)c1nc2ccccc2n1Cc1ccccc1F (centres undefined),"inconclusive: 39.8 µM [inhibitor, single point]"
16,CC(=O)c1cccc(S(=O)(=O)N2CCC(n3nnc4cc(F)ccc43)CC2)c1,"inconclusive: 39.8 µM [inhibitor, single point]"
17,Cc1nn(CC(=O)NCCc2ccc(Cl)cc2)c(C)c1[N+](=O)[O-],"inconclusive: 12.6 µM [inhibitor, partial curve]"
18,CCOC(=O)c1c(N)sc(C(=O)N2CCCC(C(N)=O)C2)c1C (centres undefined),"inconclusive: 22.4 µM [inhibitor, single point]"
19,COC(=O)c1[nH]c2ccc(C)cc2c1NC(=O)CN1CCN(C(=O)c2ccccc2)CC1,"inconclusive: 31.6 µM [inhibitor, partial curve]"
20,CCOC(=O)c1sc(Nc2cccc(Cl)c2)nc1C,"inconclusive: 35.5 µM [inhibitor, single point]"
21,O=C(CCNc1cccc(F)c1)c1cc2ccccc2o1,active: 0.0251 µM
22,Cc1cccc(NC(c2ccc(C)s2)c2ccc3ccc(C)nc3c2O)n1 (centres undefined),inactive
23,CN(C)c1ccnc2sc(C(=O)c3ccc(Br)cc3)c(N)c12,"inconclusive: 8.91 µM [inhibitor, single point]"

row,SMILES,Potency
1,COc1ccccc1NC(=O)Cc1noc(CSc2cc(C)c3ccccc3n2)n1,"inconclusive: 44.7 µM [inhibitor, single point]"
2,COC(=O)CN=Cc1c(C)[nH]n(-c2ccccc2)c1=O,inactive
3,COc1ccc(CNc2ncnc3ccc(-c4cccc(C#N)c4)cc23)c(OC)c1,"inconclusive: 35.5 µM [inhibitor, single point]"
4,NC(=O)c1ccc([N+](=O)[O-])cc1SCc1ccccc1,"inconclusive: 39.8 µM [inhibitor, single point]"
5,COC(=O)Cn1c(C(=O)N(C)C)cc2c1C[C@H]1CN(C(=O)c3ccccc3)[C@@](Cc3ccc(OC)cc3)(C(=O)OC)[C@@H]21,inactive
6,Cc1cc2cc(NC(=O)c3ccco3)ccc2[nH]1,active: 22.4 µM
7,Cc1nn(-c2nnc(C)c(=O)[nH]2)c(C)c1SCC(=O)Nc1ccc(F)cc1,"inconclusive: 20 µM [inhibitor, single point]"
8,COc1ccc2c(c1)SCC/C2=C\CN1C(=O)CCC1=O,inactive
9,CCCCN(C)C(=O)C1CCN(Cc2ccccn2)CC1,"inconclusive: 39.8 µM [inhibitor, single point]"
10,COc1ccc(/C=C/c2c([N+](=O)[O-])c(=O)n(C)c(=O)n2C)cc1O,"inconclusive: 39.8 µM [inhibitor, single point]"
11,O=c1/c(=C/c2ccco2)sc2nc(-c3ccccc3Br)nn12,"inconclusive: 10 µM [inhibitor, partial curve]"
12,CC(C)(C)c1ccc(-c2nnc(SCC(=O)NC3CCS(=O)(=O)C3)n2N)cc1 (centres undefined),"inconclusive: 35.5 µM [inhibitor, single point]"
13,O=C(O)CCC(=O)/C=C/c1ccccc1,"inconclusive: 39.8 µM [inhibitor, single point]"
14,N#CC1=C(N)NC(SCC(=O)Nc2ccc(Br)cc2)=C(C#N)C12CCCCC2,active: 28.2 µM
15,Cc1ccc(-c2cc(C(=O)Nc3ccc(S(=O)(=O)Nc4nc(C)cc(C)n4)cc3)c3ccccc3n2)cc1,inactive
16,CSCCC(NC(=O)OC(C)(C)C)C(=O)Oc1ccc2c(=O)c(-c3ccc4c(c3)OCCO4)coc2c1 (centres undefined),active: 25.1 µM
17,N#Cc1c2c(c(NCCOCCO)n3c1nc1ccccc13)CCCC2,"inconclusive: 28.2 µM [inhibitor, single point]"
18,COC(=O)CN1C(=O)C(O)(CC(=O)c2ccc(Cl)cc2)c2ccccc21 (centres undefined),active: 0.224 µM
19,O=C(O)CC12CC3CC(C1)CC(n1ncc(NCc4ccc5c(c4)OCO5)c(Cl)c1=O)(C3)C2,"inconclusive: 22.4 µM [inhibitor, partial curve]"
20,O=C(O)C1C2C=CC(O2)C1C(=O)NC1CCCc2ccccc21 (centres undefined),"inconclusive: 25.1 µM [inhibitor, partial curve]"
21,O=C(Nc1ccc(S(=O)(=O)Nc2nccs2)cc1)c1ccc(=O)[nH]c1,"inconclusive: 39.8 µM [inhibitor, single point]"
22,CCOc1ccccc1C(=O)Nc1nnc(SCC(=O)Nc2cc(C)on2)s1,"inconclusive: 35.5 µM [inhibitor, single point]"
23,COc1cccc(-c2csc(N3CCN(CC(=O)Nc4ccc5c(c4)OCO5)CC3)n2)c1,"inconclusive: 22.4 µM [inhibitor, single point]"
